In publication PMC4336329 (PLoS ONE, 2015):
Hit rate of the full screen: of about 310,000 compounds, about 2,200 (0.71%) showed an effect of 50% or more. Effects have a minus sign here. The list shows a part of the results.

Target: human ether-à-go-go-related gene (hERG) potassium channel (human, UniProt Q12809)
Experiment: primary screen, population patch clamp on CHO cells stably expressing hERG

Sequence of human ether-à-go-go-related gene (hERG) potassium channel (Q12809 whole entry, looked up): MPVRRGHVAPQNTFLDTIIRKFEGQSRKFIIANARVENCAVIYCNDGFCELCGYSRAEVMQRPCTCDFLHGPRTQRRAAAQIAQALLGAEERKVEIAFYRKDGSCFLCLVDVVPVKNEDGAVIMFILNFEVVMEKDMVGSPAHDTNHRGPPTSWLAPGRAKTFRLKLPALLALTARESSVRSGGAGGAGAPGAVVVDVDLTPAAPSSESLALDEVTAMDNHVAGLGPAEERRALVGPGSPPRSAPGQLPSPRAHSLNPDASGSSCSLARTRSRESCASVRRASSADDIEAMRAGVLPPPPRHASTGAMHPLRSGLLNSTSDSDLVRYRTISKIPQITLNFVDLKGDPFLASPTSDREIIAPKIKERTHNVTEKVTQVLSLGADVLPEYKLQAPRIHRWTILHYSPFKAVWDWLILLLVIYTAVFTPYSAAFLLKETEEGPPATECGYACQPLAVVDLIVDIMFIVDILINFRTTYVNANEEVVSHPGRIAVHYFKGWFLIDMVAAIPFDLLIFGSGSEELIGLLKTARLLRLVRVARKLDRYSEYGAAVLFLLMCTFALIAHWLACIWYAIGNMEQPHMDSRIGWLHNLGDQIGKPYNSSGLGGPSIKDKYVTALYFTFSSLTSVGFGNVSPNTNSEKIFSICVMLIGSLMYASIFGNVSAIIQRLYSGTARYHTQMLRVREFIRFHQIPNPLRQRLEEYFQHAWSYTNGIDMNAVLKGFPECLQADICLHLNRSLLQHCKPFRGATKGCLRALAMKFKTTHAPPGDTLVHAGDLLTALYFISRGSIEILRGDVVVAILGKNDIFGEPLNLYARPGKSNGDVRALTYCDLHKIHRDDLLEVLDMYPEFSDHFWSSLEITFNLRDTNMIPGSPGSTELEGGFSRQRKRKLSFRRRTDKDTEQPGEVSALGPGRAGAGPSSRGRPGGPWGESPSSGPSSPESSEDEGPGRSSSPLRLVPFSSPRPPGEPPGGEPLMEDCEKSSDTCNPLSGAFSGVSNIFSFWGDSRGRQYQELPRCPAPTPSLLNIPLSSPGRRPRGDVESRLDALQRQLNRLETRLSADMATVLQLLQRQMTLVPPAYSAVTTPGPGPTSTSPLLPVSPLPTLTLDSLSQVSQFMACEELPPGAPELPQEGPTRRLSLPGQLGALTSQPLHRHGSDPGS

Row | SMILES | hERG current change (%, negative = inhibition) at 1uM [%]
1 | CC(C)(C)n1nc2c(c1NC(=O)c1ccco1)CS(=O)C2 (stereo not shown) | 14
2 | COc1ccccc1C(=O)N(Cc1ccc(Cl)cc1)C1CCS(=O)(=O)C1 (stereo not shown) | 9.72
3 | CS(=O)(=O)c1ccc2nc(NC(=O)C3CC3)sc2c1 | 11.5
4 | COc1ccc(N2CCN(C(=O)c3ccc(C)c(NC(=O)C4=C(C)OCCS4)c3)CC2)cc1 | 9.35
5 | COc1ccc(C(=O)CCC(=O)NCCc2c[nH]c3ccccc23)cc1OC | 14
6 | CCCCn1c(-c2ccsc2)nc2c1c(=O)[nH]c(=O)n2CCC | -0.0342
7 | CCOC(=O)N1CCN(C(=S)Nc2cccc(C)c2C)CC1 | 16.8
8 | COc1ccc(C(=O)NCc2cc(C(C)C)no2)cc1OC1CCN(C(C)C)CC1 | -11.3
9 | Cc1cc(C)cc(N(CC(=O)NCCSCc2ccccc2)S(C)(=O)=O)c1 | 5.91
10 | COc1ccc(S(=O)(=O)N(C)CC(=O)N2CCCC2)cc1 | 17.8
11 | Cc1ccccc1CSc1nnc(C)c(=O)[nH]1 | 18.9
12 | C/C(=N\NC(=O)c1nnn(-c2nonc2N)c1CSc1ccccc1)c1ccc2c(c1)OCO2 | 16.7
13 | O=C(C1CC(=O)N(c2ccc3c(c2)OCCO3)C1)N1CCN(c2ccccc2)CC1 (stereo not shown) | 6.08
14 | COc1ccc(C2C(C(=O)c3ccc(C)o3)=C(O)C(=O)N2c2cc(C)on2)cc1OC (stereo not shown) | 2.92
15 | O=C1CC(c2ccc(F)cc2)C2=C(CCCC2=O)N1 (stereo not shown) | 1.55
16 | CC(=O)Nc1cc2nc(C)n(Cc3ccccc3[N+](=O)[O-])c2nc1C | 14
17 | OC(CN1CCN(c2ccccc2)CC1)Cn1c2ccccc2c2ccccc21 (stereo not shown) | 5.81
18 | CC1=NN(C(=O)COc2ccccc2)C(O)(c2ccccc2)C1 (stereo not shown) | 9.77
19 | CCOC(=O)C(CCSC)NC(=O)CN.Cl (stereo not shown) | -11.6
20 | CCS(=O)(=O)N1CCN(S(=O)(=O)c2ccccc2[N+](=O)[O-])CC1 | 3.65
21 | C/C(=N\NC(=O)c1cccc(F)c1)c1cccc(NC(=O)c2ccc(F)cc2)c1 | 9.88
22 | O=C1CN(C(=O)c2ccc(F)cc2)c2ccccc2N1 | 1.91
23 | COc1ccccc1N1C(=O)[C@@H]2[C@H](C1=O)[C@H](C(=O)c1ccc(OC(C)=O)cc1)N1N=CC=C[C@@H]21 | 15.9
24 | O=C(NCCS(=O)(=O)NCc1ccc2c(c1)OCO2)c1ccccc1 | 3.6
25 | CC1CC1c1ccc(/C=C(\C#N)C(=O)Nc2cccc(Cl)c2Cl)o1 (stereo not shown) | 5.08
26 | CCOC(=O)N1CCN(C(=O)CC(C(=O)N2CCc3ccccc32)n2ccnc2)CC1 (stereo not shown) | -19.2
27 | Cc1cc(N2C(=O)C(O)=C(C(=O)c3ccco3)C2c2cccc(Oc3ccccc3)c2)no1 (stereo not shown) | 13.7
28 | Cc1cc(O)c(-c2cc(C(=O)NCCc3ccc(S(N)(=O)=O)cc3)[nH]n2)cc1C | 15.9

Row | SMILES | hERG current change (%, negative = inhibition) at 1uM [%]
29 | CN(c1ccc(F)cc1)S(=O)(=O)c1ccc(Cl)c(C(=O)Nc2ccncc2)c1 | 10.5
30 | O=C(Nc1ccc(Cl)cc1)c1cnc(-c2ccccc2)nc1-c1ccccc1 | 2.34
31 | CC(=C\c1ccco1)/C=C(\C#N)C(=O)NCCc1c[nH]c2ccccc12 | 2.16
32 | O=C(Nc1cccc(-c2nnc(-c3ccccc3)o2)c1)C1CCCCC1 | 13.3
33 | S=C(NCc1ccccn1)Nc1ccc(Cl)cc1 | 11.8
34 | CCOc1ccc(C(O)c2nccn2Cc2ccccc2)cc1 (stereo not shown) | 11.3
35 | Cc1csc(NC(=O)COc2ccc3c(C)cc(=O)oc3c2)n1 | 6
36 | COC(=O)c1sc2ccccc2c1NC(=O)c1coc2ccccc2c1=O | 5.66
37 | CC(=O)Nc1ccc(S(=O)(=O)N(C)CC(=O)Nc2ccccc2N2CCCC2)cc1 | 14.9
38 | Cn1c(SCc2n[nH]c(=S)o2)nnc1-c1ccccc1 | 10.8
39 | CN(Cc1ccco1)S(=O)(=O)c1ccc(CN2C(=O)c3cccnc3C2=O)s1 | 10.9
40 | O=C(O)C1CC(=O)N(c2ccc(OCc3c(F)cccc3Cl)cc2)C1 (stereo not shown) | 12.5
41 | CC(C)N(Cc1nc(-c2ccccc2)no1)S(=O)(=O)c1ccccc1 | 5.31
42 | O=C(CNc1ccc(F)cc1)N/N=C1\CCc2ccccc21 | 3.41
43 | Cc1cc(C)c(NS(=O)(=O)c2ccc(NC(=O)/C=C/C(=O)O)cc2)c(C)c1 | 9.67
44 | CCc1ccc(-c2nc(-c3ccncc3)no2)cc1 | 5.1
45 | Cc1cc2c(cc1C)[n+](C)cn2CC(O)COCC1CC=CCC1.[I-] (stereo not shown) | 11
46 | CC(C)C(=O)NC(NC1CCS(=O)(=O)C1)C(Cl)(Cl)Cl (stereo not shown) | 5.34
47 | O=C1c2ccccc2C(=O)N1CC1=NCCc2ccccc21 | 13
48 | O=C(CCS(=O)(=O)c1cccc2nsnc12)N1CCN(c2ccccc2F)CC1 | 10.8
49 | O=C(NNC(=S)NCc1ccccc1)c1cccnc1 | 8.83
50 | COc1ccccc1C(=O)Nc1nnc(SCC(=O)Nc2ccc3c(c2)oc2ccccc23)s1 | 11.9
51 | COc1ccc(/C=N\NC(=O)c2nn(C)cc2Cl)cc1CN1CCOCC1 | 2.02
52 | O=C(NCc1ccccn1)C1CN(S(=O)(=O)c2ccccc2)CCN1S(=O)(=O)c1ccccc1 (stereo not shown) | 11.9
53 | CCn1c(CC(=O)Nc2cccc(Cl)c2Cl)nnc1SCCOc1ccc(OC)cc1 | 12.9
54 | C#CCOC(=O)c1ccccc1C(=O)n1nnc2ccccc21 | 3.9
55 | CCC(C(=O)NCc1ccco1)N(C(=O)CNS(=O)(=O)c1ccccc1)C1CCCCC1 (stereo not shown) | -5.76
